Test results: the supplement of paper PMC8047034
Where a name gives a salt, the structure may show the parent alone. This is one part of the list. Many values rest on one well or one pass, so single values are uncertain.

Assays:
OVCAR4 = experiment: log2 surviving fraction (library drug vs vehicle, or drug + carboplatin vs carboplatin alone; relative to plate median); ovarian cancer lines: OVCAR4 is platinum-sensitive and Ov4Carbo platinum-resistant; higher = more cell survival; conditions: library drug concentration 10 µM, 7 days
Ov4Carbo = experiment: as above; conditions: library drug concentration 10 µM, 7 days

Row | Structure (SMILES) | log2 surviving fraction (OVCAR4; carboplatin co-treatment 0 µM) | log2 surviving fraction (OVCAR4; carboplatin co-treatment 5 µM) | log2 surviving fraction (Ov4Carbo; carboplatin co-treatment 0 µM) | log2 surviving fraction (Ov4Carbo; carboplatin co-treatment 5 µM)
1 | CC(=O)Oc1cc(C(F)(F)F)ccc1C(=O)O [Triflusal] | -0.00993 | -0.406 | -0.241 | -0.261
2 | NC1CCN(c2c(F)cc3c(=O)c(C(=O)O)cn(C4CC4)c3c2Cl)C1 (stereo not given) [Clinafoxacin HCl] | 0.407 | 0.324 | 0.571 | -0.163
3 | C[N+]1(C)[C@@H]2C[C@@H](OC(=O)[C@H](CO)c3ccccc3)C[C@H]1[C@@H]1O[C@@H]12 [Methscopolamine (Pamine)] | 0.409 | 1.49 | 1.44 | -0.248
4 | CN(CCOc1ccc(CC2SC(=O)NC2=O)cc1)c1ccccn1 (stereo not given) [Rosiglitazone HCl] | 2.43 | 0.749 | 1.92 | 1.16
5 | C[C@]12CC[C@@H]3c4ccc(O)cc4CC[C@H]3[C@@H]1C[C@@H](O)[C@@H]2O [Estriol] | 0.554 | 0.884 | 0.287 | 0.428
6 | CC(C)N(CCC(C(N)=O)(c1ccccc1)c1ccccn1)C(C)C (stereo not given) [Disopyramide Phosphate] | 0.191 | -0.161 | 0.379 | 0.284
7 | COC(=O)N[C@H](C(=O)N[C@@H](Cc1ccccc1)[C@@H](O)CN(Cc1ccc(-c2ccccn2)cc1)NC(=O)[C@@H](NC(=O)OC)C(C)(C)C)C(C)(C)C [Atazanavir sulfate] | -3.63 | -0.406 | -0.476 | -1.09
8 | CN(C)c1nc(N(C)C)nc(N(C)C)n1 [Altretamine (Hexalen)] | -1.16 | 0.407 | -0.0282 | 0.165
9 | N=C(N)N [Guanidine HCl] | -0.19 | 0.104 | -0.759 | -1.41
10 | O=C(CCNNC(=O)c1ccncc1)NCc1ccccc1 [Nialamide] | 0.0158 | -0.371 | -0.736 | -0.135
11 | O=C(Nc1ccccc1)c1ccccc1O [Salicylanilide] | 0.228 | -0.197 | -0.315 | -0.932
12 | CC[C@H](C)[C@H](N)C1=N[C@H](C(=O)N[C@@H](CC(C)C)C(=O)N[C@H](CCC(=O)[O-])C(=O)N[C@H](C(=O)N[C@H]2CCCCNC(=O)[C@H](CC(N)=O)NC(=O)[C@@H](CC(=O)[O-])NC(=O)[C@H](Cc3cnc[nH]3)NC(=O)[C@@H](Cc3ccccc3)NC(=O)[C@H]([C@@H](C)CC)NC(=O)[C@@H](CCCN)NC2=O)[C@@H](C)CC)CS1.[Zn+2] [Bacitracin zinc] | 0.676 | -0.935 | -4.04 | 0.724
13 | CCN1CCCC1CNC(=O)c1cc(S(=O)(=O)CC)c(N)cc1OC (stereo not given) [Amisulpride] | -0.644 | 0.00607 | 0.758 | 1.09
14 | NCC[C@H](O)C(=O)N[C@@H]1C[C@H](N)[C@@H](O[C@H]2O[C@H](CN)[C@@H](O)[C@H](O)[C@H]2O)[C@H](O)[C@H]1O[C@H]1O[C@H](CO)[C@@H](O)[C@H](N)[C@H]1O [Amikacin hydrate] | 0.405 | -0.85 | 0.749 | 1.45
15 | CN1[C@@H]2CC[C@H]1C[C@@H](OC(c1ccccc1)c1ccccc1)C2 [Benztropine mesylate] | -1.65 | -1.85 | -2.99 | -1.62
16 | CCN[C@@H]1C[C@H](N)[C@@H](O[C@H]2OC(CN)=CC[C@H]2N)[C@H](O)[C@H]1O[C@H]1OC[C@](C)(O)[C@H](NC)[C@H]1O [Netilmicin Sulfate] | -0.38 | -0.0411 | 0.257 | -0.986
17 | CCCCC[C@H](O)/C=C/[C@H]1[C@H](O)CC(=O)[C@@H]1CCCCCCC(=O)O [Alprostadil (Caverject)] | 0.65 | -0.113 | 0.154 | -0.0592
18 | Cc1ccc(NC(=O)c2ccc(CN3CCN(C)CC3)cc2)cc1Nc1nccc(-c2cccnc2)n1 [Imatinib (Gleevec)] | -0.166 | 0.107 | 0.00321 | -0.224
19 | CC(=O)OCC(=O)[C@@]1(O)[C@H](C)C[C@H]2[C@@H]3CCC4=CC(=O)C=C[C@]4(C)[C@@]3(F)[C@@H](O)C[C@@]21C [Dexamethasone acetate] | 0.932 | 1.18 | 1.36 | 0.734
20 | CCc1nc(N)nc(N)c1-c1ccc(Cl)cc1 [Pyrimethamine] | -1.12 | -1.22 | -0.598 | -9.15
21 | NC[C@H](CC(=O)O)c1ccc(Cl)cc1 [(R)-baclofen] | 1.29 | 1.69 | 0.68 | 1.51
22 | CN(C)[C@@H]1C(O)=C(C(N)=O)C(=O)[C@@]2(O)C(O)=C3C(=O)c4c(O)ccc(Cl)c4[C@@](C)(O)[C@H]3C[C@@H]12 [Chlortetracycline HCl] | 0.0868 | 0.681 | 0.152 | 0.139
23 | Cc1cc(C(C)(C)C)cc(C)c1CC1=NCCN1 [Xylometazoline HCl] | 0.0516 | -0.45 | 0.572 | 0.189
24 | Cc1ccc(O)c([C@H](CCN(C(C)C)C(C)C)c2ccccc2)c1 [Tolterodine tartrate (Detrol LA)] | -0.0458 | -0.496 | -1.45 | -0.038
25 | C#C[C@]1(O)CC[C@H]2[C@@H]3CCC4=CC(=O)CC[C@@H]4[C@H]3CC[C@@]21CC [Levonorgestrel (Levonelle)] | 0.231 | 0.536 | -0.142 | -0.192
26 | COc1nc(C)nc(Cl)c1NC1=NCCN1 [Moxonidine] | 0.341 | 0.272 | 0.512 | 0.358
27 | C[C@H]1c2cccc(O)c2C(=O)C2=C(O)[C@]3(O)C(=O)C(C(N)=O)=C(O)[C@@H](N(C)C)[C@@H]3[C@@H](O)[C@@H]21 [Doxycycline HCl] | -0.966 | -0.375 | 0.404 | 0.275
28 | COc1cc(C(=O)NC2CCCNC2)cc(OC)c1OC (stereo not given) [Troxipide] | -0.0274 | 0.76 | 0.498 | 0.863
29 | CN/C(=N\CCSCc1nc[nH]c1C)NC#N [Cimetidine (Tagamet)] | 0.702 | 1.18 | 0.0491 | 0.521
30 | Oc1ccc(OC2CCCCO2)cc1 (stereo not given) [Deoxyarbutin] | -2.02 | -1.14 | -1.85 | -1.7
